# Laboratory results from paper PMC4336329 (PLoS ONE, 2015).
# Among all 310,000 compounds or so, about 2,200 (0.71%) showed an effect of 50% or more. Effects have a minus sign here. This is one part of the list.
# Molecular target: human ether-à-go-go-related gene (hERG) potassium channel (human, UniProt Q12809)
# Test: primary screen, population patch clamp on CHO cells stably expressing hERG
# Chain of human ether-à-go-go-related gene (hERG) potassium channel (Q12809 whole entry, looked up): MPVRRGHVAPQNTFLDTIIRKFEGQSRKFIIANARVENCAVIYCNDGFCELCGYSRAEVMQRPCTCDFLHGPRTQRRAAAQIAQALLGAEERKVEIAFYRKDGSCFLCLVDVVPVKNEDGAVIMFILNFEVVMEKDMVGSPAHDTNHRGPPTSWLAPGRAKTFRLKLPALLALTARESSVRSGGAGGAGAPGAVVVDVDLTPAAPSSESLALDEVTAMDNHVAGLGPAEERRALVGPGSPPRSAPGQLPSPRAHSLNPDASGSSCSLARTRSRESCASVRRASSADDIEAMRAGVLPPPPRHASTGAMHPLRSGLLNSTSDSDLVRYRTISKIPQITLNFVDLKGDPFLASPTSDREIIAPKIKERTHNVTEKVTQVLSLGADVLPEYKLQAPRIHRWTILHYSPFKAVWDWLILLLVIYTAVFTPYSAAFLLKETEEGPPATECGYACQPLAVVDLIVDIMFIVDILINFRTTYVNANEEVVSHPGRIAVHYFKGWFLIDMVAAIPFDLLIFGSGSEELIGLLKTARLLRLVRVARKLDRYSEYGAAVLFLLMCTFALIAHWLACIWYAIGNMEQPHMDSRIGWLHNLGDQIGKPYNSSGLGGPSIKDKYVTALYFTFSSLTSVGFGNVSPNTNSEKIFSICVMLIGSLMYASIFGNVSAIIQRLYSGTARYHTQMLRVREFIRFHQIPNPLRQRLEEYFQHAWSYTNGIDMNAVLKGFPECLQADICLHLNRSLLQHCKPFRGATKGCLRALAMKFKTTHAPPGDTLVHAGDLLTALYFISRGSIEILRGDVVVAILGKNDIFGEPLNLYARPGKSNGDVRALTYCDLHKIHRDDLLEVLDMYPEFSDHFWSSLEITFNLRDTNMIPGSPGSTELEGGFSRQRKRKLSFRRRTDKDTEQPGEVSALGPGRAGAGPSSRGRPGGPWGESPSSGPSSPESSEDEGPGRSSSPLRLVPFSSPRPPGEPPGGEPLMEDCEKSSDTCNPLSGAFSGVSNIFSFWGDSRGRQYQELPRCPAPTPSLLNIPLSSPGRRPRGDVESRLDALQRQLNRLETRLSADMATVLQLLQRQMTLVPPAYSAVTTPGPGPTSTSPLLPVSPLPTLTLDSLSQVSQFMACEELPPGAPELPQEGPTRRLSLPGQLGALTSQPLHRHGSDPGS
row,Compound,"hERG current change (%, negative = inhibition) at 1uM"
1,CCOc1ccc(-c2cn3ccccc3n2)cc1[N+](=O)[O-],-29.7%
2,CCCN(CCC)S(=O)(=O)c1ccc(C(=O)NCc2ccc3c(c2)OCO3)cc1,8.55%
3,COC(=O)c1sc2nc3c(cc2c1N)C(=O)CC(C)(C)C3,18.8%
4,CC(C)C[C@H](NC(=O)c1nc[nH]c1C(=O)NC(c1ccccc1)c1ccccc1)C(=O)OC(C)(C)C,17.7%
5,COc1ccc(-n2nnnc2SCc2nc(N)nc(N3CCOCC3)n2)cc1,10.2%
6,Cc1cc(OCc2cc(C(=O)N(C)C3CCOCC3)no2)cc(C)c1Cl,12.8%
7,COc1ccc(-c2cc(C(F)F)n3ncc(C(=O)Nc4cc(C)on4)c3n2)cc1,10.7%
8,Cc1ccc2c(c1)N(CC(=O)NCCCN1CCCC1)C(=O)CO2,9.09%
9,CCN1C(=O)C(C)S/C1=N\S(=O)(=O)c1ccc(F)cc1 (centres unmarked),9.52%
10,Cc1nc2ccccn2c(=O)c1NC(=O)c1cccc2ccccc12,-1.13%
11,N#Cc1c(N)nc2c(c1-c1ccncc1)CCCCCC2,-1.65%
12,COc1cc(NC(=O)c2cccs2)c(C(=O)OCC(=O)NC(C)c2ccccc2)cc1OC (centres unmarked),21.6%
13,Cc1cc(C(=O)CSc2nc(N)cc(=O)[nH]2)c(C)n1CCc1ccc(Cl)cc1,17.6%
14,CN(CCCNC(=O)COc1cc(=O)n(C)c2ccccc12)Cc1ccccc1,-3.31%
15,Cc1ccc2c(c1)N(C(=O)CCC(=O)N1CCN(c3ccccn3)CC1)CC(C)O2 (centres unmarked),-6.88%
16,CCCN(C(=O)c1cc(S(=O)(=O)N2CCCCC2)ccc1Cl)C1CCS(=O)(=O)C1 (centres unmarked),2.11%
17,COc1ccccc1Nc1ncnc2c1c(C)c(C)n2CCO,9.07%
18,CC1(C)C(=O)OC(c2c(F)c(F)c(F)c(F)c2F)C2(CCCCC2)C1=O (centres unmarked),15%
19,CCc1nc(SCC(=O)Nc2cccc3ccccc23)[nH]c(=O)c1C,14.6%
20,CC1CCC(NC(=O)CCS(=O)(=O)c2ccc3c(c2)NC(=O)CS3)CC1 (centres unmarked),7.17%
21,CCOC(=O)c1cnc(-n2nc(C)cc2C)nc1NC1CCCCC1,8.39%
22,COc1ccc(N2CCN(C(=O)COC(=O)CNC(=O)c3ccc(Cl)cc3Cl)CC2)cc1,-7.94%

row,Compound,"hERG current change (%, negative = inhibition) at 1uM"
1,ClCC1=Nc2ccccc2Cc2ccccc21,11.8%
2,CCC(CO)(C(=O)OC1CC2CCC(C1)N2C)c1ccccc1.Cl (centres unmarked),12.3%
3,COc1cccc(C2CC(c3ccccc3)Nc3ncnn32)c1 (centres unmarked),0.509%
4,COc1ccccc1N1CCN(C2CCCCC2NS(=O)(=O)c2ccccc2)CC1 (centres unmarked),1.35%
5,Cc1ccc(C(=O)n2nc(-c3ccccc3)nc2NCc2ccco2)cc1,14%
6,COc1ccc(NC(=O)CCC(=O)NCc2ccco2)c([N+](=O)[O-])c1,10%
7,Clc1ccc(-c2ccc(C=Nc3ccc(N4CCOCC4)cc3)o2)cc1,-0.0857%
8,O=[N+]([O-])c1cc(C=Nc2cccc3c(O)cccc23)ccc1Cl,14.8%
9,Cc1ccc(C(C[N+](=O)[O-])n2nc(C)cc2C)cc1 (centres unmarked),17.6%
10,CCCOc1cccc(C2C(C(=O)c3ccc(C)o3)=C(O)C(=O)N2CCN2CCOCC2)c1 (centres unmarked),26.3%
11,O=C(CC1NCCN(Cc2ccccc2)C1=O)Nc1ccccc1 (centres unmarked),5.77%
12,O=C(Nc1nccs1)C1CC=CCC1C(=O)OCC(F)(F)C(F)F (centres unmarked),15.2%
13,Cn1c(=O)c(=O)n(C)c2cc(S(=O)(=O)CCC(=O)Nc3ccc(C(F)(F)F)cc3)ccc21,10.9%
14,C=CCN1C(=O)NC(=O)/C(=C/c2c(CCN(C)C(=O)c3ccccc3)cc3c(c2OC)OCO3)C1=O,9.51%
15,CCOc1ccc(S(=O)(=O)N2CCC(C(=O)N3CCN(c4ccccc4)CC3)CC2)cc1,8.59%
16,N#C/C(C(=O)Oc1ccccc1)=C1\C=CC=CN1,9.65%
17,CCCNC(=O)C1(O)c2cc(Br)ccc2NC(=O)N1c1ccc(Cl)cc1 (centres unmarked),8.43%
18,CCOc1cccc2sc(N(CCN(C)C)C(=O)c3ccc(Br)s3)nc12.Cl,6.64%
19,O=Nc1c(O)[nH]c2ccc(Cl)cc12,4.46%
20,CC(=O)N1[C@H](C)C=C[C@]1(Cc1ccccc1)C(=O)NCc1cc(F)cc(C(F)(F)F)c1,6.57%
21,CN(C)S(=O)(=O)c1cccc(NC(=O)COC(=O)c2ccc(Br)o2)c1,3.56%
22,c1ccc2c(c1)NC(c1ccncc1)n1c-2nc2ccccc21 (centres unmarked),6.75%
